Data as given in paper PMC4336329 (PLoS ONE, 2015).
The whole screen tested about 310,000 compounds, of which about 14,000 (4.5%) showed an effect of 50% or more. Effects have a minus sign here. Some of the results follow.

Each compound was assayed against human ether-à-go-go-related gene (hERG) potassium channel (human, UniProt Q12809) (assay: primary screen, population patch clamp on CHO cells stably expressing hERG).
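Note: peak tail current of the secondary pulse compared with the same well before compound.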

human ether-à-go-go-related gene (hERG) potassium channel, sequence (Q12809 whole entry, looked up): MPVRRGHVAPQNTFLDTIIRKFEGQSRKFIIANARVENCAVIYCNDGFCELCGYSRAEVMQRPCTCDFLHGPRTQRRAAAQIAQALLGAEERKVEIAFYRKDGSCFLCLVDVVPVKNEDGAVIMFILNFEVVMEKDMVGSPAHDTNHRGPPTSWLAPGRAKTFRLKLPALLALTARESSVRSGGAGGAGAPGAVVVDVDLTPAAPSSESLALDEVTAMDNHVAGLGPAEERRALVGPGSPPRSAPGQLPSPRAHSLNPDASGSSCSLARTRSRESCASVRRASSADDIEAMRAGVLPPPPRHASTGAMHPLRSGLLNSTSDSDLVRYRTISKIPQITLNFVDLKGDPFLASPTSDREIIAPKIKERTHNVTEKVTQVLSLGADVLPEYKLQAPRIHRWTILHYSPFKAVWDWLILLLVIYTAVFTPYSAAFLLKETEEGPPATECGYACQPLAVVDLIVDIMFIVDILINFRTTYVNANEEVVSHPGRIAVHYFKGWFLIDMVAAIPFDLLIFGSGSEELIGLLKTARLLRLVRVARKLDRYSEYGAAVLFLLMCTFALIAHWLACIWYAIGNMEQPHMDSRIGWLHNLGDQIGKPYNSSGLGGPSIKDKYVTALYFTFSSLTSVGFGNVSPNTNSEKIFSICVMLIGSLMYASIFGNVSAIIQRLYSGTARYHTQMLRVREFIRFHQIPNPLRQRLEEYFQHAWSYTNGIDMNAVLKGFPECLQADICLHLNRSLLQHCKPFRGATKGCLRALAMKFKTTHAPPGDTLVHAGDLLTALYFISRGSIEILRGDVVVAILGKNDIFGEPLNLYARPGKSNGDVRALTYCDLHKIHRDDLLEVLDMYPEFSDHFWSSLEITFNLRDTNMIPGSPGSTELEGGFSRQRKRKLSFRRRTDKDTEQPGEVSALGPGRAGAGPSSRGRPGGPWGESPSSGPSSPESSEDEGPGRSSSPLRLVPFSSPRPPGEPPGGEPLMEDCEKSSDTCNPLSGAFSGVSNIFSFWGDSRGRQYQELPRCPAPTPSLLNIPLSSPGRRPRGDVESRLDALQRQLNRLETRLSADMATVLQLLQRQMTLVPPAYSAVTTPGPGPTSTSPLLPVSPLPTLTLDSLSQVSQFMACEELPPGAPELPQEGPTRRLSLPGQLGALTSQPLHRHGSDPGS

Row | SMILES | hERG current change (%, negative = inhibition) at 10uM [%]
1 | O=C(O)c1ccc(CSCc2ccccc2Cl)o1 | 20.5
2 | O=C(CN1CCN(S(=O)(=O)c2ccccc2)CC1)N1CCCCC1 | 10.8
3 | CC(C)CN(C(=O)CN1CCN(S(=O)(=O)c2ccc3ccccc3c2)CC1)c1c(N)n(CC(C)C)c(=O)[nH]c1=O | 11.5
4 | COc1ccc(CN2CCN(Cc3ccc(C(F)(F)F)cc3)CC2)c(OC)c1.O=C(O)C(=O)O | -74.1
5 | O=C(c1ccc(Cl)cc1)C1CCCN(Cc2ccon2)C1 (stereo not shown) | -18
6 | O=C(Cc1c(F)cccc1Cl)Nc1ccc(-n2cnnn2)cc1 | -3.19
7 | O=C(NC(=S)NCCOCc1ccc(Cl)cc1)c1cccnc1 | -26.8
8 | COc1ccc(OC)c(C2=NOC(C(=O)Nc3cccnc3)C2)c1 (stereo not shown) | -9.42
9 | CCC(=O)Nc1ccc(C(=O)NNC(=O)c2cc([N+](=O)[O-])cc([N+](=O)[O-])c2)cc1 | 12.7
10 | CCN(CC(=O)Nc1c(F)cccc1F)C(=O)c1cccc(S(=O)(=O)N2CCc3ccccc3C2)c1 | -20
11 | CCOc1ccc(C(=O)N2CCC(C(=O)c3ccc4c(c3)OCCO4)CC2)cc1 | -75.7
12 | O=C(Nc1ccc(S(=O)(=O)N2CCCC2)cc1)N1c2ccccc2Sc2ccccc21 | 47.3
13 | N#Cc1c2c(c(NCc3ccco3)n3c1nc1ccccc13)CCC2 | 6.77
14 | OCCCNc1nccc(-c2cc(Nc3cccc(Cl)c3)ncn2)n1 | 9.69
15 | COC(=O)CC1C(=O)NC(C)=C1C(=O)OC (stereo not shown) | 13
16 | O=C(CSc1nnc(-c2cccs2)o1)c1cccs1 | -10.1
17 | CCN(Cc1ccccc1)C(=O)c1ccc(C(=O)N(CC)Cc2ccccc2)cc1 | 5.22
18 | O=C(CSc1ccccc1)NCC1(N2CCCCC2)CCCCC1 | -0.798
19 | Cc1nn(CC(C)C)c(Cl)c1C(=O)O | 14.1
20 | CC(=O)c1ccc(C(=O)NC2CCCN(Cc3ccccc3F)C2)cc1 (stereo not shown) | 1.68
21 | CCOC(=O)C1CCCN(S(=O)(=O)c2cc(Br)cc3c2N(C(=O)C2CC2)CC3)C1 (stereo not shown) | -7.49
22 | O=c1[nH]c(=O)c2cc([N+](=O)[O-])cc([N+](=O)[O-])c2[nH]1 | 20.7

Row | SMILES | hERG current change (%, negative = inhibition) at 10uM [%]
23 | CN(C)c1ccc(/C=N/NC(=O)c2cc(=O)[nH]c3ccccc23)cc1 | 9.79
24 | O=C(NCc1ccccn1)Nc1ccccc1C(F)(F)F | 12.7
25 | Cc1cccc(N2CN=C3SCC(=O)N3C2)c1 | 0.175
26 | O=C1Nc2ccccc2OC1CC(=O)N1CCCC1 (stereo not shown) | -5.31
27 | CN1CCN(CCCNc2c(C=O)c(=O)[nH]c3ccccc23)CC1 | 14.9
28 | Cc1nn(C)c(C)c1NC(=O)/C(C#N)=C\N(C)C | 12.6
29 | CN(CCc1ccccn1)C(=O)CCC1CCCN(C(=O)c2cscn2)C1 (stereo not shown) | -18.1
30 | CCN(Cc1ccccc1)C(=O)CN1C(=O)NC2(CC(C)CC(C)(C)C2)C1=O (stereo not shown) | -11.6
31 | COc1ccccc1OCC(=O)Nc1sc2c(c1C(=O)NCC1CCCO1)CCC2 (stereo not shown) | -8.43
32 | Cn1c(C(=O)N2CCCC(C(=O)O)C2)cc2sccc21 (stereo not shown) | 19.4
33 | CN(C)/C=C1\C(=O)N(c2ccc(F)cc2F)C(c2cccnc2)S1(=O)=O (stereo not shown) | 21.7
34 | Cc1ccc2nc3c(cc(C(=O)NCc4ccco4)c(=N)n3Cc3ccco3)c(=O)n2c1 | -77
35 | Cc1ccc(-c2nnn(CC(=O)N(Cc3ccco3)C(C(=O)NC(C)(C)C)c3ccc(C)o3)n2)o1 (stereo not shown) | -14.4
36 | CCOc1cc(CN2CCCC(N3CCN(c4ccc(F)cc4)CC3)C2)ccc1OC (stereo not shown) | -62.7
37 | Cc1cccc(C)c1-n1c(C)nn(-c2ncc(C(F)(F)F)cc2Cl)c1=O | 8.97
38 | C=CCN1C(=O)/C(=C2/Sc3ccc(OC)cc3N2C)SC1=Nc1cccc(O)c1 | 21.1
39 | COc1ccc(-c2nc3cccc(C)n3c2NCc2ccco2)cc1OC | -42.2
40 | Cc1ccc2c(c1)-c1c(cnn1CC(=O)O)CO2 | 31.4
41 | CN(c1ccccc1)S(=O)(=O)c1ccc(NC(=S)Nc2ccccc2)cc1 | -6.18
42 | CCOC(=O)c1c(C)[nH]c(O)c1C=Nc1ccc(C(F)(F)F)cc1 | 17
43 | O=C(COc1cccnc1[N+](=O)[O-])NCc1ccccc1 | -0.324
44 | COc1ccc(OCC(=O)NNC(=O)Cc2coc3cc(OC)ccc23)cc1 | -3.63

Row | SMILES | hERG current change (%, negative = inhibition) at 10uM [%]
45 | CCOC(=O)c1c(/N=C/c2ccc(C)cc2O)sc2c1CCN(C)C2 | 2.41
46 | C(=NC12CN3CN(CN(C3)C1)C2)c1ccc2c(c1)OCO2 | -13.3
47 | CCC(=O)N1CCc2cc(S(=O)(=O)CCC(=O)Nc3cccc(F)c3)ccc21 | 5.94
48 | COC(=O)c1ccc(COC(=O)CNC(=O)c2ccc(C)s2)cc1 | 6.01
49 | O=C(Nc1ncccn1)C1c2ccccc2Oc2ccccc21 | 11.9
50 | O=C(Nc1ccc([N+](=O)[O-])cn1)c1ccc(Br)o1 | -11.6
51 | CCNc1c2c3c(cccc3n(C)c1=O)C(=O)c1ccccc1-2 | -4.97
52 | Cc1cccc(C(=O)O/N=C2\CCSc3ccc(C)cc32)c1 | 1.99
53 | CCOCCCNCc1cc(Cl)ccc1OCC.Cl | -11.8
54 | C=CCNC(=O)CCCC(=O)NCC=C | 8.13
55 | CC(NC(=O)c1ccccc1)c1nc2ccccc2n1Cc1ccc(C#N)cc1 (stereo not shown) | -68.6
56 | COc1ccc2nc(SCC(=O)NC(C)c3ccccc3)[nH]c2c1 (stereo not shown) | 11.5
57 | COc1ccc(/C=C(\CC(=O)O)c2nc3ccccc3o2)cc1 | 11.8
58 | COc1ccc(OC)c2c1sc(=NC(=O)c1ccco1)n2C | 14.8
59 | CCCCN(c1ccccc1)S(=O)(=O)c1ccc2c(c1)CCN2C(=O)CCC(=O)O | 11
60 | Cc1ccc(C)c(/C=N/NC(=S)NCCc2ccccc2)c1 | -2.51
61 | O=C(c1sccc1-n1cccc1)N1CCCC1 | 18.8
62 | COc1ccc(N2CCN(C(=O)CCCn3c(=S)[nH]c4cc5c(cc4c3=O)OCO5)CC2)cc1 | 11.7
63 | CCC(C)[C@H](N)c1cn([C@@H](Cc2ccc(O)cc2)C(=O)N2CCNCC2)nn1.Cl (stereo partly shown) | 15.2
64 | O=C(O)CSc1nnc(C2CC2)n1-c1ccccc1 | 0.585
65 | Cc1ccc(-c2nc3ncccc3o2)cc1NC(=O)c1cccnc1 | -11.9
66 | COc1ccc2cc(CN(CCCN3CCOCC3)Cc3nnnn3C3CCCC3)c(=O)[nH]c2c1 | -59.7

Row | SMILES | hERG current change (%, negative = inhibition) at 10uM [%]
67 | O=C(COC(=O)c1ccc2c(c1)C(=O)N(Cc1ccco1)C2=O)NCC(F)(F)F | -15.5
68 | O=C(CNC(=O)C12CC3CC(CC(C3)C1)C2)Nc1ncccc1O | -15.5
69 | CC(C)CNC(=O)/C=C/C(=O)O | 10.7
70 | O=C(Nc1cccnc1)c1ccc(-c2cc(Cl)ccc2Cl)o1 | 18.3
71 | O=C(O)CCCNS(=O)(=O)c1ccc2c(c1)OCCCO2 | -12
72 | COC/C=C1\CN2C3C[C@@H]1[C@H]1COC4=Nc5cc(OC)c(OC)c(OC)c5[C@@]43C[C@@H]12 | -2.85
73 | CCOc1ccc(N2C(=O)/C(=C/c3cccs3)N(CC(=O)OC)C2=S)cc1 | -28
74 | O=C(c1cc2ccccc2oc1=O)N(Cc1ccc2c(c1)OCO2)Cc1ccco1 | -59.3
75 | O=C(NCc1ccc2c(c1)OCO2)c1cc2ccccc2oc1=O | 12
76 | CCOC(=O)c1nc(-c2ccc3c(c2)OCO3)[nH]c1C | -13.7
77 | O=C(NC1CCCCC1)c1ccc(CS(=O)Cc2ccc(Cl)cc2)o1 (stereo not shown) | -21.7
78 | COCCOC(=O)c1c(C)oc2ccc(NS(=O)(=O)c3ccc(F)cc3)cc12 | -26.8
79 | COc1ccc(N2CCN(C(=O)CNC(=O)Cn3c(C)cc4ccccc4c3=O)CC2)cc1 | -8.98
80 | CCOc1ccccc1NC(=O)N1CCC(NC(=O)c2ccccc2C)CC1 | -1.06
81 | COCCn1nnnc1C(c1cc2cc(C)cc(C)c2[nH]c1=O)N1CCN(c2ccccc2F)CC1 (stereo not shown) | -23.1
82 | CC(OC(=O)c1ccc(NC(=O)CC#N)cc1)C(=O)Nc1ccc(Oc2ccccc2)cc1 (stereo not shown) | 14.6
83 | COc1ccccc1NC(=O)N1c2ccccc2NC(=O)CC1C (stereo not shown) | 7.25
84 | N#CCCN(Cc1ccccc1)C(=O)c1cccs1 | 3.74
85 | CS(=O)(=O)c1ccc(Cl)c(NC(=O)CN2C(=O)C3CCCCC3C2=O)c1 (stereo not shown) | 10.7
86 | COc1ccc(S(=O)(=O)/C(C#N)=C/Nc2cccc(F)c2)cc1 | 17.2
87 | COC(=O)c1nn(-c2ccccc2)c(Cl)c1/C=N/OCc1c(Cl)cccc1Cl | -27.8
88 | CNc1nc2c(Cl)cc(Cl)cc2s1 | 2.33
